PubChem BioAssay AID1508624 (National Center for Advancing Translational Sciences (NCATS), 2021)
The campaign covered roughly 48,000 compounds. About 120 (0.25%) were called active. Inconclusive results (about 4%) are left out. The call rests on the fitted dose curve; in most records, active means well fitted activation curve with a large enough effect; inconclusive means small, poorly fitted or top-dose-only effect, or another doubt; inactive means no such curve, though single readings can be large or run the other way. Some of the results follow.

Experiment: Primary qHTS for Identification of Small Molecule Activators of Huntingtin-Antisense Promoter Activity; further: nearly all actives have a fitted effect of over 55% in size
Details: HEK293 HTT-AS promoter firefly luciferase reporter, 24 h; series mostly up to 57.5 µM; activity change, positive = activation: at the top concentration
Method in brief: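 Firefly luciferase signal from promoter-reporter HEK293 cells was scaled between vehicle (0%) and zero RLU (-100%). Compounds were tested at final concentrations of up to 57.5 uM over 24 h at 37 degrees C. PTC124 at 50 uM final served as control inhibitor.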

Activity change, positive = activation, inactive:
COCCn1c(C)cc(O)c(C(c2ccccc2)N2CCN(c3ccccc3F)CC2)c1=O (centres undefined) 10.2%
C=CCc1ccc(O)c(-c2ccc(O)c(CC=C)c2)c1 -14.3%
COc1cc([C@@H]2c3cc4c(cc3[C@H](O)[C@H]3COC(=O)[C@H]23)OCO4)cc(OC)c1OC
NC(CO)(CO)CCc1ccc(Sc2cccc(OCc3ccccc3)c2)cc1Cl -29.3%
O=C(O)CN(CCOCCOCCN(CC(=O)O)CC(=O)O)CC(=O)O 1.32% [at 0.74 µM, percent change from vehicle, -100% = no light]
CC(Nc1ccc(-c2nc(-c3cccnc3)no2)cc1[N+](=O)[O-])c1ccccc1 (centres undefined) -0.11%
CCS(=O)(=O)c1ccc(C(=O)N2CCN(c3nc4c(OC)ccc(C)c4s3)CC2)cc1 -36.5%
CCN(CC)CCCC(C)Nc1c2ccc(Cl)cc2nc2ccc(OC)cc12 (centres undefined) -1.79%
CCOC(=O)c1ccc(NC(=O)CCCc2nc(-c3ccccc3Cl)no2)cc1 -18.3%
CCOc1ccc(S(=O)(=O)NCC(c2ccco2)S(=O)(=O)c2cccs2)cc1 (centres undefined) -10.3%
Cc1ccc(NC(=O)c2cnn3c(C(F)F)cc(-c4ccccc4)nc23)c(C)c1 -9.86%
COc1ccc(OC)c(NC(=O)C2CCCN(S(=O)(=O)c3c(C)nn(C)c3C)C2)c1 (centres undefined) -7.9%
Cc1ccc(NC(=O)Nc2nnc(N(CC(C)C)CC(C)C)s2)cc1Cl -7.59%
CCc1ccc(CNC(=O)Cc2ccc(NC(=O)N3CCSc4ncccc43)cc2)cc1 -21.7%
COc1cccc(N2CCN(C(=O)C(CCSC)NS(=O)(=O)c3ccc4c(c3)oc(=O)n4C)CC2)c1 (centres undefined) -12%
CCOC(=O)CSc1nc2ccc(NC(=O)c3ccc(C)cc3)cc2s1 8.47%
O=C(O)c1ccc2c(c1)ncn2-c1ccc(F)c(F)c1 -9.78%
Cc1ccc(CNC(=O)Cn2nc(C)n3cccc3c2=O)cc1 -0.551%
Cc1ccc(-n2ncc(C(=O)N3CCN(c4cccc(C)c4)C(C)C3)c2C2CCN(C(=O)OC(C)(C)C)CC2)cc1 (centres undefined) -12.4%
Cc1nn(CCCC(=O)NCc2ccc(F)cc2)c(=O)c2c1sc1ccccc12 8.15%
CCOc1ccc(N2CC(c3nc4ccccc4n3Cc3cccc(Cl)c3)CC2=O)cc1 (centres undefined) -24%
CCOc1ccc2nc(NC(=O)c3cc(=O)c4ccc(C)cc4o3)sc2c1 -2.68%
CCN1CCSc2ccc(C(=O)NC(C)c3ccccc3)cc21 (centres undefined) -14%
O=C(NCc1ccc(Cl)cc1)c1cc(S(=O)(=O)N2CCCCC2)c[nH]1 -18.1%
Cc1cc(C)cc(C(=O)Nc2ccc(-c3nc4ncccc4o3)cc2)c1 3.52%
Cc1c2cnn(CC(=O)N3CCN(c4ccc(F)cc4)CC3)c(=O)c2c(C)n1Cc1ccc(F)cc1 -23.2%
COc1c(C)cc(S(=O)(=O)NCCc2c(C)[nH]c3ccccc23)c(C)c1C -14.2%
CCOC(=O)c1cc(-c2ccccc2)n(-c2cccc(C(=O)Nc3ccc(F)c(F)c3)c2)c1C -33.2%
COc1ccccc1CNC(=O)CCn1c(=O)c2ccccc2n(CC(=O)Nc2cccc(Cl)c2)c1=O -36.9%
CC(=O)N1CCOc2cc(S(=O)(=O)Nc3cccc(C(F)(F)F)c3)c(Cl)cc21 -32%
CCOC(=O)c1ccccc1NC(=O)C(=O)Nc1ccc2nc3n(c(=O)c2c1)CCCCC3 -12.9%
CCc1cccc(-n2c(C)nc3c(cnn3-c3ccc(Cl)cc3)c2=O)c1 -53.5%
COc1ccc(NC(=O)C2CCN(S(=O)(=O)c3ccc4[nH]c(=O)ccc4c3)CC2)c(OC)c1 -6.72%
Cc1cn2c(=O)cc(COc3cccc(NC(=O)c4ccccc4C)c3)nc2s1 -25.2%
COc1ccc(OC)c(NC(=O)Cc2coc3ccc(C(C)C)cc23)c1 -29%
CCOC(=O)c1[nH]c(C)c(CCC(=O)NCc2ccccc2)c1C -6.2%
CCOC(=O)c1c(-c2ccccc2)oc2ccc(N(C(C)=O)S(=O)(=O)c3cc(C)ccc3C)cc12 -6.74%
Cc1cc(C)cc(NC(=O)N2CCC(N3CCCCC3)CC2)c1 4.92%
CCOc1ccc(CNC(=O)C2CCN(c3nnc(-n4cccc4CNc4ccc(C)cc4)s3)CC2)cc1OC -33.6%
Cc1ccc(O)c(C(CC(=O)NCC2(c3ccccc3)CCCC2)c2ccccc2)c1 (centres undefined) -53.5%
CCc1c(C)nc(SCC(=O)N2CCN(c3ccccc3OC)CC2)[nH]c1=O -12.8%
COc1ccc(OC)c(NC(=O)c2cc3c(=O)oc4ccccc4c3s2)c1 -2.46%
CCN(CC)c1nn2c(=O)c(C(=O)NCCc3ccccc3)cnc2s1 -3.08%
Cc1ccc(C)c(NC(=O)c2ccc3c(O)c(S(=O)(=O)c4ccc(Cl)cc4)c(=O)[nH]c3c2)c1 -11.2%
Cc1cc2c(cc1S(=O)(=O)NCc1ccccc1Cl)OCCN2C -14%
CCCCSCCCNC(=O)CN1C(=O)c2cccnc2Oc2ccc(Cl)cc21 -11.5%
CCOc1ccc(-c2nonc2NC(=O)c2oc3cc(C)ccc3c2C)cc1 -34.2%
Fc1ccc(-c2noc3ncnc(N4CCN(c5ccccc5)CC4)c23)cc1 -21.7%
COc1ccc(S(=O)(=O)N2CCN(c3ccccc3F)CC2)cc1-c1noc(C)n1 7.74%
O=C(NCc1ccc(F)cc1)c1ccc2c(Cl)c3c(nc2c1)CCCC3 -16.9%
COc1ccc(Cl)cc1Nc1sc(C(=O)c2ccccc2)c(N)c1C(=O)Nc1ccccc1 -29.1%
CC(=O)N1CCc2cc(CNS(=O)(=O)c3ccc(F)cc3)ccc21 0.808%
CCc1ccc(-c2cn3c(n2)sc2cc(C(=O)NC4CCCCCC4)ccc23)cc1 6.38%
O=C(NCc1cccc(Cl)c1)c1cc2c(s1)-c1ccccc1OC2 -7.14%
CCc1c(C)sc2c1CCN(Cc1cccc(F)c1)C2c1ccccc1 (centres undefined) -44%
COCCc1nn2c(=O)cc(COC(=O)c3ccc4c(c3)OCO4)nc2s1 -5.59%
Cc1ccc(NC2=C(c3ccc(C(F)(F)F)cc3)C(=O)c3ccccc32)cc1C 19.6%
CC(=O)Nc1ccc(C(=O)CSc2nnc(-c3ccccc3)n2-c2ccccc2)cc1 -7.46%
Cc1ccc(-c2cc(C(=O)NCc3cnn(C)c3C)c3cc(Br)ccc3n2)cc1 6.57%
Cc1ccc(S(=O)(=O)c2nc(-c3ccccc3F)oc2N2CCCCC2)cc1 -49.1%
CCOC(=O)c1c(C)[nH]c(CCC(=O)NCCCN2CCN(c3ccc(F)cc3)CC2)c1C -20.2%
CCCCCCCCCCCCCCCC[N+](C)(C)CCN(Cc1ccc(OC)cc1)c1ncccn1 -39.2%
CCOC(=O)c1ccccc1NC(=O)Cn1cc(C(=O)c2cccc(OC)c2)c(=O)c2ccc(C)nc21 -17.4%
Cc1cccc(-c2nc(S(=O)(=O)c3ccc(F)cc3)c(N3CCN(c4ccccc4)CC3)o2)c1 -12%
Cc1ccc(CCNC(=O)c2ccc3c(c2)N(Cc2cccc(C)c2)C(=O)c2ccccc2S3(=O)=O)cc1 -15.1%
CC(C)c1ccc(NC(=O)c2cc3c(s2)-c2ccccc2SC3)cc1 -9.55%
Cc1cc(=O)[nH]c2nnc(SCC(=O)NC(C)(C)C)n12 -12.5%
O=C(CN1C(=O)COc2ccc(S(=O)(=O)N3CCCCCC3)cc21)NCc1ccc(Cl)cc1 -32.3%
CCc1ccc(N=C2NC(=O)CC(C(=O)Nc3ccc(OC)cc3)S2)cc1 (centres undefined) 15.7% [at 11.5 µM, percent change from vehicle, -100% = no light]
COc1cc2c(cc1OC)C(COc1ccccc1OC)N(C(=O)CC(C)C)CC2 (centres undefined) -20.8%
Cc1ccc(C(=O)N2CCc3cc(CNS(=O)(=O)c4ccc(Cl)s4)ccc32)cc1 -32.7%
O=C(Nc1ccc(NC(=O)c2cc3ccccc3o2)cc1)c1ccccc1 4.4%
Cn1cc(S(=O)(=O)c2ccc(Cl)cc2)c(=O)c2cc(F)c(N3CCCCCC3)cc21 -15.1%
O=C(CN1CCN(S(=O)(=O)c2cc(Cl)ccc2Cl)CC1)Nc1cccc(F)c1 -32.9%
CC(C(=O)Nc1cccc(C#N)c1)n1nc(-c2ccccc2)c2c(c1=O)CCCC2 (centres undefined) -24%
Fc1ccc(-c2nc(Nc3ccc(F)c(Cl)c3)nc3c2COc2ccccc2-3)cc1 -13.4%
CCOc1ccc(C2CC(=O)n3nc(-c4ccc(C)cc4)nc3S2)cc1OC (centres undefined) -2.59%
CC1=C(C(=O)Nc2ccc(C)cc2C)C(c2ccccc2[N+](=O)[O-])n2ncc(C(=O)Nc3ccccc3)c2N1 (centres undefined) 15.1%
CCOC(=O)C1CCCN(C(=O)c2ccc3c(c2)N(Cc2ccccc2)C(=O)c2ccccc2S3(=O)=O)C1 (centres undefined) 3.14%
O=C(NC1CC1)c1ccc(Cn2c(SCc3cccc(F)c3)nc3cccnc32)cc1 -15.2%
O=C(NCC(c1cccnc1)N1CCc2ccccc2C1)c1ccc(F)c(F)c1 (centres undefined) -22.9%
O=C(Nc1ccc(Cl)cc1)C1CCN(c2nc3ccccc3nc2C(F)(F)F)CC1 2.99%
COc1ccccc1N1CCN(C(=O)c2ccc(CS(=O)c3ccccc3C)o2)CC1 (centres undefined) -27.4%
COc1ccc(CCN2C(=O)c3oc4cc(C)cc(C)c4c(=O)c3C2c2ccc(F)cc2)cc1OC (centres undefined) -6.55%
CCS(=O)(=O)N1CCc2cc(C(=O)NCc3ccc(OC)cc3)ccc21 -13.4%
Cn1cc(S(=O)(=O)c2cccc(Cl)c2)c(=O)c2cc(F)c(N3CCCCCC3)cc21 6.03%
CCC(CC)C(=O)Nc1ccc(OCc2cc(=O)n3c4c(sc3n2)CCCC4)cc1 -12.2%
O=C(O)P(=O)(O)O -1.58%
COc1cccc(-c2nnc3n(Cc4ccc(F)cc4)c(=O)c4ccccc4n23)c1 0%
COc1ccc(CCNC(=O)NCc2noc3ccccc23)c(OC)c1 -12.8%
CN(C)c1ccc(C(CNS(=O)(=O)c2ccc(Cl)cc2)N2CCCC2)cc1 (centres undefined) -20.4%
CC(C)NCC(O)c1ccc(NS(C)(=O)=O)cc1 (centres undefined) -0.025%
COc1cc(C(=O)NCC(c2cccnc2)N2CCN(c3ccc(F)cc3)CC2)cc(OC)c1OC (centres undefined) -16.5%
Cc1cccc(-c2nc3c(C#N)c[nH]n3c2NC2CCCCC2)c1 40%
